Results: patent US9475779B2, “Substituted bicyclic dihydropyrimidinones and their use as inhibitors of neutrophil elastase activity” (priority 2014, dated 2016)

Target: hERG (human ether-a-go-go-related gene) potassium channel (Homo sapiens (Human), UniProt Q12809)
Test: cell-based

Row | Compound | IC50 [µM]
1 | CN1C(=O)N(c2cccc(C(F)(F)F)c2)C2=C(C(=O)CC2)C1c1ccc(C#N)cc1CO (single isomer, unassigned) [Example A.1A, 3-Hydroxymethyl-4-[3-methyl-2,5-dioxo-1-(3-trifluoromethyl-phenyl)-2,3,4,5,6,7-hexahydro-1H-cyclopentapyrimidin-4-yl]-benzonitrile] | > 30
2 | CN1C(=O)N(c2cccc(C(F)(F)F)c2)C2=C(C(=O)CC2)[C@H]1c1ccc(C#N)cc1S(=O)(=O)CCO [Example B.1.2B] | > 30
3 | CN1C(=O)N(c2ccnc(C(F)(F)F)c2)C2=C(C(=O)CC2)C1c1ccc(C#N)cc1S(C)(=O)=O (single isomer, unassigned) [Example D.1A, 3-Methanesulfonyl-4-[3-methyl-2,5-dioxo-1-(2-trifluoromethyl-pyridin-4-yl)-2,3,4,5,6,7-hexahydro-1H-cyclopentapyrimidin-4-yl]-benzonitrile] | > 30
